The test has as its system P388 leukemia ip, CD2F1 mice, survival T/C. The experiment in a line: NCI In Vivo Anticancer Drug Screen. Data for tumor model P388 Leukemia (intraperitoneal) in CD2F1 (CDF1) mice. As to conditions: endpoint: median survival time, higher = longer survival. The protocol:
The antitumor activity of compounds was measured in mice bearing transplantable tumors. Survival or tumor size were measured and the results are expressed as the measurement made in the treated group (T) divided by the measurement made in the vehicle treated control group (C). The tumor model used in this assay is P388 Leukemia (intraperitoneal) in CD2F1 (CDF1) mice

“And” between values parts separate entries of the source, which are not always exact repeats. Equal entries are not always repeated. Further values from the same series stand in other lists. Toxic doses and inconclusive results are not listed.

With `COc1cccc2c1C(=O)c1c(O)c3c(c(O)c1C2=O)CC(O)(C(=O)CO)CC3OC1CC(N)C(O)C(C)O1` (configuration not stated), the T/C is 110 % of control (dose: 0.13 mg/kg/injection, schedule: Q04DX003 (ip), vehicle: distilled water + Tween-80); 109 % of control and 107 % of control (dose: 0.25 mg/kg/injection, schedule: Q04DX003 (ip), vehicle: water); 155 % of control and 167 % of control (dose: 0.38 mg/kg/injection, schedule: Q01DX009 (ip), vehicle: water); 105 % of control and 113 % of control (dose: 0.5 mg/kg/injection, schedule: Q04DX003 (ip), vehicle: water); 183 % of control and 193 % of control (dose: 0.75 mg/kg/injection, schedule: Q01DX009 (ip), vehicle: water); 105 % of control and 108 % of control (dose: 1.0 mg/kg/injection, schedule: Q04DX003 (ip), vehicle: saline). In addition, the T/C (dose: 1.13 mg/kg/injection, schedule: Q04DX003 (ip), vehicle: water) was 110 % of control and 111 % of control; the T/C (dose: 1.5 mg/kg/injection, schedule: Q01DX009 (ip), vehicle: water) is 174 % of control and 201 % of control; the T/C (dose: 2.0 mg/kg/injection, schedule: Q04DX003 (ip), vehicle: saline) is 100 % of control; the T/C (dose: 2.0 mg/kg/injection, schedule: Q04DX003 (ip), vehicle: water) was 122 % of control; the T/C (dose: 2.25 mg/kg/injection, schedule: Q04DX003 (ip), vehicle: water) is 118 % of control; the T/C (dose: 4.0 mg/kg/injection, schedule: Q04DX003 (ip), vehicle: distilled water + Tween-80) was 105 % of control. For the same molecule, the T/C by setting is: (dose: 4.5 mg/kg/injection, schedule: Q04DX003 (ip), vehicle: water) 111 % of control; (dose: 8.0 mg/kg/injection, schedule: Q04DX003 (ip), vehicle: saline) 108 % of control; (dose: 8.0 mg/kg/injection, schedule: Q04DX003 (ip), vehicle: water) 99 % of control [middle of 4 runs]; (dose: 9.0 mg/kg/injection, schedule: Q04DX003 (ip), vehicle: water) 154 % of control; (dose: 16.0 mg/kg/injection, schedule: Q04DX003 (ip), vehicle: saline) 120 % of control and 95 % of control; (dose: 16.0 mg/kg/injection, schedule: Q04DX003 (ip), vehicle: water) 100 % of control. Besides, the T/C (dose: 22.0 mg/kg/injection, schedule: Q04DX003 (ip), vehicle: water) is 117 % of control and 122 % of control; the T/C (dose: 32.0 mg/kg/injection, schedule: Q04DX003 (ip), vehicle: water) is 110 % of control; the T/C (dose: 36.0 mg/kg/injection, schedule: Q04DX003 (ip), vehicle: water) was 102 % of control and 93 % of control; the T/C (dose: 75.0 mg/kg/injection, schedule: Q04DX003 (ip), vehicle: water) was 104 % of control; the T/C (dose: 88.0 mg/kg/injection, schedule: Q04DX003 (ip), vehicle: water) was 192 % of control; the T/C (dose: 128.0 mg/kg/injection, schedule: Q04DX003 (ip), vehicle: water) is 168 % of control. Moreover, the T/C is 283 % of control (dose: 133.0 mg/kg/injection, schedule: Q04DX003 (ip), vehicle: water); 98 % of control (dose: 150.0 mg/kg/injection, schedule: Q04DX003 (ip), vehicle: water); 221 % of control (dose: 192.0 mg/kg/injection, schedule: Q04DX003 (ip), vehicle: water).

Turning to `COc1cc(NCc2ccc3nc(N)nc(N)c3c2C)cc(OC)c1OC`, the T/C was 201 % of control (dose: 15.0 mg/kg/injection, schedule: Q03HX024 (ip), vehicle: water); 218 % of control (dose: 30.0 mg/kg/injection, schedule: Q03HX024 (ip), vehicle: water); 95 % of control (dose: 60.0 mg/kg/injection, schedule: Q01DX009 (oral), vehicle: water); 189 % of control (dose: 67.1 mg/kg/injection, schedule: Q01DX009 (ip), vehicle: water); 91 % of control (dose: 960.0 mg/kg/injection, schedule: Q01DX001 (oral), vehicle: water).

The record behind these values is PubChem BioAssay AID330 (DTP/NCI, 2004).
